Data taken from the supplement of paper PMC8728848.
This is one part of the list.

Legend:
Test in all cases: glycan array binding signal (z-score within array); higher = stronger binding
Conditions in all cases: glycan notation: IUPAC condensed, linker removed
[1] = biological target: Neu5Ac(a2-3)Gal(b1-3)GalNAc(b1-4)[Neu5Ac(a2-3)]Gal(b1-4)Glc
Method in brief: (§1)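 From the Consortium for Functional Glycomics database, 3228 arrays were curated, keeping only those whose protein sequence was available. Binding is given as a within-array Z-score averaged across arrays sharing a protein sequence and across linkers. Negative Z-scores can be read as non-binding.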

[2] = biological target: Neu5Ac(a2-3)Gal(b1-3)GalNAc(b1-4)[Neu5Ac(a2-8)Neu5Ac(a2-3)]Gal(b1-4)Glc
Method in brief: as §1

[3] = biological target: Neu5Ac(a2-3)Gal(b1-3)GalNAc6S
Method in brief: as §1

[4] = biological target: Neu5Ac(a2-3)Gal(b1-3)GlcNAc
Method in brief: as §1

[5] = biological target: Neu5Ac(a2-3)Gal(b1-3)GlcNAc(b1-2)Man
Method in brief: as §1

[6] = biological target: Neu5Ac(a2-3)Gal(b1-3)GlcNAc(b1-2)Man(a1-3)[GlcNAc(b1-4)][Neu5Ac(a2-3)Gal(b1-3)GlcNAc(b1-2)Man(a1-6)]Man(b1-4)GlcNAc(b1-4)GlcNAc
Method in brief: as §1

[7] = biological target: Neu5Ac(a2-3)Gal(b1-3)GlcNAc(b1-2)Man(a1-3)[Neu5Ac(a2-3)Gal(b1-3)GlcNAc(b1-2)Man(a1-6)]Man(b1-4)GlcNAc(b1-4)GlcNAc
Method in brief: as §1

[8] = biological target: Neu5Ac(a2-3)Gal(b1-3)GlcNAc(b1-2)[Neu5Ac(a2-3)Gal(b1-3)GlcNAc(b1-4)]Man(a1-6)[Neu5Ac(a2-3)Gal(b1-3)GlcNAc(b1-2)Man(a1-3)]Man(b1-4)GlcNAc(b1-4)GlcNAc
Method in brief: as §1

[9] = biological target: Neu5Ac(a2-3)Gal(b1-3)GlcNAc(b1-3)Gal(b1-3)GlcNAc
Method in brief: as §1

[10] = biological target: Neu5Ac(a2-3)Gal(b1-3)GlcNAc(b1-3)Gal(b1-4)GlcNAc
Method in brief: as §1

[11] = biological target: Neu5Ac(a2-3)Gal(b1-3)GlcNAc(b1-3)GalNAc
Method in brief: as §1

[12] = biological target: Neu5Ac(a2-3)Gal(b1-3)GlcNAc(b1-4)Gal(b1-4)Glc
Method in brief: as §1

[13] = biological target: Neu5Ac(a2-3)Gal(b1-3)GlcNAc(b1-6)GalNAc
Method in brief: as §1

[14] = biological target: Neu5Ac(a2-3)Gal(b1-3)GlcNAc6S
Method in brief: as §1

[15] = biological target: Neu5Ac(a2-3)Gal(b1-3)[Fuc(a1-4)]GlcNAc
Method in brief: as §1

[16] = biological target: Neu5Ac(a2-3)Gal(b1-3)[Fuc(a1-4)]GlcNAc(b1-3)Gal(b1-3)[Fuc(a1-4)]GlcNAc
Method in brief: as §1

[17] = biological target: Neu5Ac(a2-3)Gal(b1-3)[Fuc(a1-4)]GlcNAc(b1-3)Gal(b1-4)[Fuc(a1-3)]GlcNAc
Method in brief: as §1

[18] = biological target: Neu5Ac(a2-3)Gal(b1-3)[GlcNAc(b1-6)]GalNAc
Method in brief: as §1

[19] = biological target: Neu5Ac(a2-3)Gal(b1-3)[Neu5Ac(a2-3)Gal(b1-4)]GlcNAc
Method in brief: as §1

[20] = biological target: Neu5Ac(a2-3)Gal(b1-3)[Neu5Ac(a2-6)]GalNAc
Method in brief: as §1

[21] = biological target: Neu5Ac(a2-3)Gal(b1-3)[Neu5Ac(a2-6)]GlcNAc(b1-3)[Fuc(a1-3)[Gal(b1-4)]GlcNAc(b1-6)]Gal(b1-4)Glc
Method in brief: as §1

[22] = biological target: Neu5Ac(a2-3)Gal(b1-3)]Neu5Ac(a2-3)Gal(b1-4)]GlcNAc
Method in brief: as §1

[23] = biological target: Neu5Ac(a2-3)Gal(b1-4)Glc
Method in brief: as §1

[24] = biological target: Neu5Ac(a2-3)Gal(b1-4)GlcNAc
Method in brief: as §1

[25] = biological target: Neu5Ac(a2-3)Gal(b1-4)GlcNAc(b1-2)Man
Method in brief: as §1

[26] = biological target: Neu5Ac(a2-3)Gal(b1-4)GlcNAc(b1-2)Man(a1-3)[GlcNAc(b1-4)][Neu5Ac(a2-3)Gal(b1-4)GlcNAc(b1-2)Man(a1-6)]Man(b1-4)GlcNAc(b1-4)GlcNAc
Method in brief: as §1

[27] = biological target: Neu5Ac(a2-3)Gal(b1-4)GlcNAc(b1-2)Man(a1-3)[Neu5Ac(a2-3)Gal(b1-4)GlcNAc(b1-2)Man(a1-6)]Man(b1-4)GlcNAc(b1-4)GlcNAc
Method in brief: as §1

[28] = biological target: Neu5Ac(a2-3)Gal(b1-4)GlcNAc(b1-2)Man(a1-3)[Neu5Ac(a2-3)Gal(b1-4)GlcNAc(b1-2)Man(a1-6)]Man(b1-4)GlcNAc(b1-4)[Fuc(a1-6)]GlcNAc
Method in brief: as §1

[29] = biological target: Neu5Ac(a2-3)Gal(b1-4)GlcNAc(b1-2)Man(a1-3)[Neu5Ac(a2-6)Gal(b1-4)GlcNAc(b1-2)Man(a1-6)]Man(b1-4)GlcNAc(b1-4)GlcNAc
Method in brief: as §1

[30] = biological target: Neu5Ac(a2-3)Gal(b1-4)GlcNAc(b1-2)[Neu5Ac(a2-3)Gal(b1-4)GlcNAc(b1-4)]Man(a1-3)[GlcNAc(b1-4)][Neu5Ac(a2-3)Gal(b1-4)GlcNAc(b1-2)[Neu5Ac(a2-3)Gal(b1-4)GlcNAc(b1-6)]Man(a1-6)]Man(b1-4)GlcNAc(b1-4)GlcNAc
Method in brief: as §1

[31] = biological target: Neu5Ac(a2-3)Gal(b1-4)GlcNAc(b1-2)[Neu5Ac(a2-3)Gal(b1-4)GlcNAc(b1-4)]Man(a1-3)[GlcNAc(b1-4)][Neu5Ac(a2-3)Gal(b1-4)GlcNAc(b1-4)Man(a1-6)]Man(b1-4)GlcNAc(b1-4)GlcNAc
Method in brief: as §1

[32] = biological target: Neu5Ac(a2-3)Gal(b1-4)GlcNAc(b1-2)[Neu5Ac(a2-3)Gal(b1-4)GlcNAc(b1-6)]Man(a1-6)[Neu5Ac(a2-3)Gal(b1-4)GlcNAc(b1-2)Man(a1-3)]Man(b1-4)GlcNAc(b1-4)GlcNAc
Method in brief: as §1

[33] = biological target: Neu5Ac(a2-3)Gal(b1-4)GlcNAc(b1-2)[Neu5Ac(a2-3)Gal(b1-4)GlcNAc(b1-6)]Man(a1-6)[Neu5Ac(a2-3)Gal(b1-4)GlcNAc(b1-2)Man(a1-3)][GlcNAc(b1-4)]Man(b1-4)GlcNAc(b1-4)GlcNAc
Method in brief: as §1

[34] = biological target: Neu5Ac(a2-3)Gal(b1-4)GlcNAc(b1-3)Gal
Method in brief: as §1

[35] = biological target: Neu5Ac(a2-3)Gal(b1-4)GlcNAc(b1-3)Gal(b1-3)GlcNAc
Method in brief: as §1

[36] = biological target: Neu5Ac(a2-3)Gal(b1-4)GlcNAc(b1-3)Gal(b1-4)GlcNAc
Method in brief: as §1

[37] = biological target: Neu5Ac(a2-3)Gal(b1-4)GlcNAc(b1-3)Gal(b1-4)GlcNAc(b1-2)Man(a1-3)[Neu5Ac(a2-3)Gal(b1-4)GlcNAc(b1-3)Gal(b1-4)GlcNAc(b1-2)Man(a1-6)]Man(b1-4)GlcNAc(b1-4)GlcNAc
Method in brief: as §1

[38] = biological target: Neu5Ac(a2-3)Gal(b1-4)GlcNAc(b1-3)Gal(b1-4)GlcNAc(b1-3)Gal(b1-4)GlcNAc
Method in brief: as §1

[39] = biological target: Neu5Ac(a2-3)Gal(b1-4)GlcNAc(b1-3)Gal(b1-4)GlcNAc(b1-3)Gal(b1-4)GlcNAc(b1-2)Man(a1-3)[Neu5Ac(a2-3)Gal(b1-4)GlcNAc(b1-3)Gal(b1-4)GlcNAc(b1-3)Gal(b1-4)GlcNAc(b1-2)Man(a1-6)]GalNAc
Method in brief: as §1

[40] = biological target: Neu5Ac(a2-3)Gal(b1-4)GlcNAc(b1-3)Gal(b1-4)GlcNAc(b1-3)GalNAc
Method in brief: as §1

[41] = biological target: Neu5Ac(a2-3)Gal(b1-4)GlcNAc(b1-3)Gal(b1-4)GlcNAc(b1-3)[Neu5Ac(a2-3)Gal(b1-4)GlcNAc(b1-3)Gal(b1-4)GlcNAc(b1-6)]GalNAc
Method in brief: as §1

[42] = biological target: Neu5Ac(a2-3)Gal(b1-4)GlcNAc(b1-3)Gal(b1-4)GlcNAc(b1-6)[Gal(b1-3)]GalNAc
Method in brief: as §1

[43] = biological target: Neu5Ac(a2-3)Gal(b1-4)GlcNAc(b1-3)Gal(b1-4)[Fuc(a1-3)]GlcNAc
Method in brief: as §1

[44] = biological target: Neu5Ac(a2-3)Gal(b1-4)GlcNAc(b1-3)GalNAc
Method in brief: as §1

[45] = biological target: Neu5Ac(a2-3)Gal(b1-4)GlcNAc(b1-3)[Neu5Ac(a2-3)Gal(b1-4)GlcNAc(b1-6)]GalNAc
Method in brief: as §1

B1: WGA (Triticum vulgare) (protein)
chain: QRCGEQGSNMECPNNLCCSQYGYCGMGGDYCGKGCQNGACWTSKRCGSQAGGATCPNNHCCSQYGHCGFGAEYCGAGCQGGPCRADIKCGSQSGGKLCPNNLCCSQWGFCGLGSEFCGGGCQSGACSTDKPCGKDAGGRVCTNNYCCSKWGSCGIGPGYCGAGCQSGGCDAVFAGAITANSTLLAE
glycan array binding signal (z-score) [1]: -0.364
glycan array binding signal (z-score) [2]: -0.347
glycan array binding signal (z-score) [3]: -0.294
glycan array binding signal (z-score) [4]: -0.219
glycan array binding signal (z-score) [5]: -0.293
glycan array binding signal (z-score) [6]: -0.33
glycan array binding signal (z-score) [7]: -0.307
glycan array binding signal (z-score) [8]: -0.375
glycan array binding signal (z-score) [9]: -0.327
glycan array binding signal (z-score) [10]: 0.549
glycan array binding signal (z-score) [11]: -0.309
glycan array binding signal (z-score) [12]: -0.334
glycan array binding signal (z-score) [13]: -0.351
glycan array binding signal (z-score) [14]: -0.264
glycan array binding signal (z-score) [15]: -0.283
glycan array binding signal (z-score) [16]: -0.333
glycan array binding signal (z-score) [17]: -0.062
glycan array binding signal (z-score) [18]: -0.465
glycan array binding signal (z-score) [19]: 0.726
glycan array binding signal (z-score) [20]: -0.277
glycan array binding signal (z-score) [21]: -0.281
glycan array binding signal (z-score) [22]: -0.291
glycan array binding signal (z-score) [23]: -0.342
glycan array binding signal (z-score) [24]: 0.161
glycan array binding signal (z-score) [25]: -0.304
glycan array binding signal (z-score) [26]: 0.495
glycan array binding signal (z-score) [27]: 0.446
glycan array binding signal (z-score) [28]: 0.221
glycan array binding signal (z-score) [29]: -0.094
glycan array binding signal (z-score) [30]: -0.105
glycan array binding signal (z-score) [31]: -0.095
glycan array binding signal (z-score) [32]: -0.066
glycan array binding signal (z-score) [33]: 0.576
glycan array binding signal (z-score) [34]: -0.334
glycan array binding signal (z-score) [35]: -0.332
glycan array binding signal (z-score) [36]: 0.317
glycan array binding signal (z-score) [37]: 0.444
glycan array binding signal (z-score) [38]: 1.06
glycan array binding signal (z-score) [39]: 0.307
glycan array binding signal (z-score) [40]: -0.353
glycan array binding signal (z-score) [41]: -0.001
glycan array binding signal (z-score) [42]: -0.149
glycan array binding signal (z-score) [43]: -0.372
glycan array binding signal (z-score) [44]: -0.376
glycan array binding signal (z-score) [45]: -0.318
